Here are results for 59 compounds from PubChem BioAssay AID463173 (ICCB-Longwood Screening Facility, Harvard Medical School, 2010).

The whole screen tested about 52,000 compounds, of which about 1,700 (3.3%) were called active. Cut-off read from the data, not from the text of the source: active = survival mostly below about 52% (no sharp cut-off); inactive = mostly above about 56%. The list shows a part of the results.

For this assay, the system named is Wild type. As to the kind of experiment: S. aureus survival, RN4220 and DeltatarO strains – OD600, teichoic acid synthesis inhibitors, primary screen (AID 463173). The settings on record: S. aureus RN4220 wild type/DeltatarO growth, OD600, 18 h, active compounds read low, screened at 18.75 µg/mL (by protocol).
In the case of `O=C1NC(c2ccc(Cl)cc2)Nc2ccccc21` (centres undefined), the survival was inactive: 113%.

In the case of `COc1ccc(OC)c(NC(=O)CSc2c3c(nc4ccccc24)CCCC3)c1`, the survival is inactive: 86%.

For `CC1CCN(S(=O)(=O)c2ccc3c(c2)N(CC(=O)NC(C)C)C(=O)CS3)CC1`, the survival was inactive: 82%.

Turning to `Cc1ccc(Cn2cccc2C2=NC(C)(C)CO2)cc1`, the survival is inactive: 28%.

Regarding `CC(C)Oc1ccc(C(=O)N2CCCC2C(=O)O)cc1` (centres undefined), the survival is inactive: 120%.

In the case of `CCS(=O)(=O)N1N=C(c2ccc(C)cc2)CC1c1cc2ccc(OC)cc2nc1Cl` (centres undefined), the survival was inactive: 75%.

As for `N#CCC(c1ccccc1)c1ccc2c(c1)OCO2` (centres undefined), the survival is inactive: 126%.

`COc1ccccc1OC(C)C(=O)NCC1(N2CCOCC2)CCCCC1` (centres undefined): the survival is inactive: 87%.

For `Cc1ccc(OC(=O)c2cc(-c3ccc4c(c3)OCCO4)on2)c(C)c1`, the survival was active: -6%.

With `CCc1nn(CCCC(=O)NCc2ccccc2Br)c(=O)c2cc3occc3n12`, the survival was inactive: 80%.

Regarding `CCCC(=O)N1c2ncnn2C2(CCCCC2)[C@@H]2CCCC[C@@H]21`, the survival is inactive: 81%.

With `COc1ccc(NC(=O)CCNS(=O)(=O)c2cccc3nonc23)cc1`, the survival was inactive: 68%.

For the compound `Cc1ccc(OCC(=O)NCC2(N3CCN(C)CC3)CCCCC2)cc1C`, the survival is inactive: 91%.

As to `COc1ccccc1CNc1ccc(-c2nc(C(C)C)no2)cc1[N+](=O)[O-]`, the survival is inactive: 71%.

As for `Cc1c(Cl)ccc2sc(N3CCN(C(=O)c4ccco4)CC3)nc12`, the survival was inactive: 73%.

As for `Cc1ccc(CCNC(=O)CN(c2ccc(C)cc2)S(=O)(=O)c2c(C)noc2C)cc1`, the survival is inactive: 88%.

For the compound `Cc1cc(C)c2c(CC(=O)N(Cc3ccc(N(C)C)cc3)Cc3ccco3)coc2c1`, the survival was inactive: 62%.

As for `O=C(CSc1nc2c(c(=O)[nH]1)CCC2)Nc1ccccc1F`, the survival is inactive: 78%.

Turning to `CN(C)c1ccc(CNc2nc(-c3ccco3)nn2S(=O)(=O)c2ccc3ccccc3c2)cc1`, the survival was inactive: 85%.

On to `CCOc1ccc(CNC(=O)c2cc3oc4ccccc4c3n2C)cc1`, for which the survival is inactive: 132%.

Regarding `Cc1ccc(C)c(NC(=O)Cn2cc(C(=O)c3ccncc3)c(=O)c3cc(F)ccc32)c1`, the survival was inactive: 82%.

Take `COc1ccc(NC(=O)Cn2cnc3sc(C)c(S(=O)(=O)N4CCN(C)CC4)c3c2=O)cc1OC`: the survival was inactive: 148%.

`CCOC(=O)C1CCN(C(c2ccccc2OC)c2c(O)cc(C)n(CCOC)c2=O)CC1` (centres undefined): the survival was inactive: 70%.

`COc1cccc(-c2nc(-c3ccc(-c4ccccc4)nc3OC)no2)c1`: the survival was active: 2%.

`Cc1ccc(C(=O)Nc2ccc(Cl)c(-c3nc4ncccc4o3)c2)c(C)c1`: the survival was inactive: 62%.

Turning to `Cc1ccccc1OCc1ccc(-c2nc(C#N)c(NCCCN(C)C)o2)o1`, the survival is inactive: 85%.

Take `Cc1ccccc1-c1nc(CNC(=O)Nc2ccccc2)c(C)o1`: the survival was inactive: 68%.

In the case of `CCOC(=O)CN1CCOCCN(CC(=O)OCC)CCOCC1`, the survival was inactive: 102%.

With `CC1CCCCN1Cc1c(C#N)c2ccccc2n1C` (centres undefined), the survival is inactive: 109%.

With `CC(C)CCOc1ccc(C(=O)Nc2sc3c(c2C#N)CCCCC3)cc1`, the survival was inactive: 135%.

For `Cn1nnnc1SCCCNCc1cccc(OCc2ccc(Cl)cc2)c1`, the survival is inactive: 22%.

On to `O=C(Nc1ccc(F)cc1)[C@H](Cc1ccccc1)N1Cc2ccccc2C1=O`, for which the survival was inactive: 91%.

For `CCOc1ccccc1NC(=O)C1CCN(S(=O)(=O)c2c(C)noc2/C=C/c2ccc(C)cc2)CC1`, the survival is inactive: 97%.

Turning to `CCOc1ccc(C(=O)NCCn2cc(SCC(=O)NCCc3ccc(OC)c(OC)c3)c3ccccc32)cc1`, the survival was inactive: 62%.

For the compound `COC(=O)c1ccc(Nc2ncnc3c2nc2n3CCCC2)cc1`, the survival is inactive: 131%.

`COc1ccccc1OCCn1cc(C(=O)c2cccs2)c2ccccc21`: the survival is inactive: 102%.

In the case of `O=C(c1cc2c(=O)oc3ccccc3c2s1)N1CCN(c2cccc(Cl)c2)CC1`, the survival was inactive: 145%.

Consider `COc1ccc(Cl)cc1NC(=O)Cn1ccn(Cc2ccc(C)cc2)c(=O)c1=O`, for which the survival was inactive: 69%.

On to `Cc1cccc(-n2c(SCC(N)=O)nc3c(oc4ccccc43)c2=O)c1`, for which the survival is inactive: 75%.

As to `CCOC(=O)N1CCN(C(=O)CN(c2cccc(Cl)c2C)S(=O)(=O)c2ccc(C)cc2)CC1`, the survival was inactive: 115%.

`O=C(Nc1ccccc1)c1cccc2c(=O)c3c([nH]c12)CCCC3`: the survival was inactive: 77%.

Turning to `Cn1c(SCc2ccc(F)cc2)nc2ccc(C(=O)NCc3ccc(F)cc3)cc21`, the survival is inactive: 55%.

For `Cc1nn(CC(=O)NC2CC2)c(=O)c2cc3ccccc3n12`, the survival was inactive: 86%.

Consider `O=C(Nc1ccccc1NC(=O)c1cccs1)c1cccs1`, for which the survival was inactive: 111%.

Turning to `CCN(CC)CCN(C(=O)c1ccco1)c1nc2ccc(Cl)cc2s1`, the survival is inactive: 87%.

As for `COCCn1c(SCC(=O)c2cc(C)ccc2C)nc2cc(C(=O)NC3CCCC3)ccc2c1=O`, the survival was inactive: 55%.

For the compound `Cc1cc(C)cc(NC(=O)c2cc(S(=O)(=O)N3CCCCCC3)cn2C)c1`, the survival is inactive: 77%.

As to `Cc1ccc(-n2nc3c(N4CCC(C(=O)NC(C)C)CC4)nnc(C)c3c2C)cc1`, the survival is inactive: 143%.

Regarding `CCC(Sc1nc(N)cc(=O)[nH]1)C(=O)Nc1ccccc1C#N` (centres undefined), the survival is inactive: 97%.

For the compound `Cc1ccc(C2Nc3ccccc3-n3c(-c4ccccc4)c4c(=O)n(C)c(=O)n(C)c4c32)o1` (centres undefined), the survival is inactive: 74%.

`CC1CCCCN1C(=O)c1ccc(S(=O)(=O)NCc2cccnc2)cc1` (centres undefined): the survival is inactive: 111%.

For `Cc1ccc(NC(=O)Cn2c(-c3ccc4c(c3)OCO4)cn(-c3ccccc3)c2=O)cc1C`, the survival is inactive: 76%.

For the compound `Cc1cccc(NC(=O)Cn2cc(CO)c3ccccc32)c1`, the survival was inactive: 115%.

Consider `CCC1CN(C(=O)N2CCC(C(=O)NCc3ccc(OC)cc3OC)CC2)c2cc(C)ccc2O1` (centres undefined), for which the survival is inactive: 85%.

In the case of `CCOc1ccc(-c2nc(SC(C(C)=O)C(=O)N(C)C)c3c(=O)n(C)c(=O)n(C)c3n2)cc1` (centres undefined), the survival was inactive: 68%.

As for `Cc1c(Cl)cccc1-n1ncc(C(=O)Nc2ccc3c(c2)OCCO3)c1C1CCN(C(=O)OC(C)(C)C)CC1`, the survival is inactive: 99%.

With `O=C(NC1CCSC1=O)C1CCCCC1` (centres undefined), the survival was inactive: 109%.

Regarding `CCc1ccc(NC(=O)c2ccc3c(c2)nnn3CC)cc1`, the survival was active: -6%.

With `Cc1ccc2cc3cc(C(=O)Nc4ccc(F)cc4Cl)oc3nc2c1`, the survival was inactive: 82%.
